We go through 167 variants from the RNAGym collection of RNA variant scans (doi:10.7554/elife.90254).

Sequences and labels used below:
B1: LINE1-mini (parent)
chain: GGCAGAGCUCAACACAGCGUGGCAAAGUGGCUGUGGCUAGACUGCC

The source gives no read counts; variants with many changes may rest on few reads.

Variants of B1 are the subject of this series. Nature of the series: self-cleavage, relative activity (ratio to wild type); higher = more cleavage; in vitro, sequencing; the parent is a self-cleaving ribozyme.
As to C10G C13G G19C A24U C31A U32G G35U U38C, the self-cleavage amounted to 0.

Regarding C10G C15U G29A, the self-cleavage was 0.29.

As for C10G A41U C45A, the self-cleavage stood at 0.02.

C10U A12U G19U G27C U34C: the self-cleavage turned out to be 0.01.

Consider C10U A11U C13A U34A U38C G40U, for which the self-cleavage is 0.01.

With C10U A14C C23U A41G, the self-cleavage is 0.01.

For C10U A12C C23U, the self-cleavage was 0.01.

As to C10G C15A A25G C46U, the self-cleavage worked out at 0.02.

For C10G C13G A16U, the self-cleavage turned out to be 0.01.

As for C10U C15A C45U, the self-cleavage is 0.05.

Consider C10G A12G U43C C45U, for which the self-cleavage was 0.01.

For C10G C18A G36C, the self-cleavage is 0.03.

Turning to C10G C18A A26C, the self-cleavage is 0.04.

Turning to C10G C13G A14U G40U, the self-cleavage came to 0.

With C10U A12G A14U C15A G17U, the self-cleavage turned out to be 0.06.

As for C10U A16U C46A, the self-cleavage amounted to 0.13.

As to C10G C15U C31U C45U, the self-cleavage worked out at 0.04.

As to C10G C15G C18U G36U, the self-cleavage amounted to 0.03.

As for C10U C13A A25C, the self-cleavage was found to be 0.09.

On to C10G A24C C31A A39G, for which the self-cleavage is 0.

With C10U A24G G27U U32C, the self-cleavage came out at 0.03.

As for C10U C13A U38C, the self-cleavage stood at 0.02.

As to C10G G17C U43G, the self-cleavage turned out to be 0.01.

Take C10G U20A G35C U43C C45G: the self-cleavage was 0.02.

On to C10G G17U A24C A26C, for which the self-cleavage stood at 0.04.

For C10G C23G G27C G35C C37A, the self-cleavage turned out to be 0.

On to C10G A26G U28C, for which the self-cleavage came out at 0.16.

In the case of C10U A11C U20A U38G, the self-cleavage came out at 0.01.

With C10G A24C U38A, the self-cleavage worked out at 0.04.

With C10G A39C G44U, the self-cleavage came to 0.01.

Take C10U C15A A16G G19A: the self-cleavage turned out to be 0.07.

For C10G A25U A26U G35A U38C, the self-cleavage came to 0.01.

On to C10G C23A G36U, for which the self-cleavage is 0.02.

Consider C10G A25C C37G A39G, for which the self-cleavage turned out to be 0.01.

With C10G C42A G44C, the self-cleavage came out at 0.

For C10G C15G U28A G30C C42U, the self-cleavage was found to be 0.01.

Consider C10G A16C G22C C23U, for which the self-cleavage worked out at 0.04.

In the case of C10G C23A G27U G30C C46A, the self-cleavage was 0.04.

As for C10U A11U G30C, the self-cleavage was found to be 0.15.

Turning to C10U A11G C23U C46A, the self-cleavage came to 0.01.

As for C10G G17C G27A G33C, the self-cleavage was 0.03.

C10G C13U G22C A26G U28A G44A: the self-cleavage was 0.

C10U A26U C31G G35U: the self-cleavage came to 0.02.

As for C10U C15G A24G C42U, the self-cleavage stood at 0.01.

With C10G U20A A25G G29C, the self-cleavage was 0.03.

On to C10G A41C C45A, for which the self-cleavage turned out to be 0.03.

For C10U C13A C23U G44U, the self-cleavage was determined as 0.02.

Consider C10U C13G G27U G36U C42A, for which the self-cleavage amounted to 0.03.

For the variant C10U A12U C23U, the self-cleavage worked out at 0.04.

As for C10U A14U C23A U38A U43A C46U, the self-cleavage is 0.02.

As to C10U A16G C23G A41U, the self-cleavage was 0.04.

With C10G C13G G33C U38C A39U, the self-cleavage was found to be 0.02.

In the case of C10U A11U A25U U34G, the self-cleavage is 0.06.

With C10U A16G U20A, the self-cleavage worked out at 0.06.

For the variant C10U A12U C13U G22A, the self-cleavage was 0.06.

As for C10U A14U U34A A39U G40U C42A, the self-cleavage is 0.

Turning to C10G A12C G35C, the self-cleavage came to 0.01.

On to C10U C13G U20G G27U G35U G36C, for which the self-cleavage came to 0.03.

For C10G A25C C31U U34C U38C, the self-cleavage was determined as 0.02.

As for C10U C13U G19A G35U, the self-cleavage was determined as 0.06.

For C10G C31A U32G G44C, the self-cleavage came to 0.01.

For the variant C10G G17C C18A G27A U28C G33C, the self-cleavage is 0.

For the variant C10G G29A G35A C46A, the self-cleavage stood at 0.05.

In the case of C10G A25U G40A C42U, the self-cleavage was 0.

Consider C10U A11G C15U A25U U28G U43A, for which the self-cleavage stood at 0.01.

Consider C10G A25G G30A A41U, for which the self-cleavage is 0.02.

Take C10G A25U A39G: the self-cleavage stood at 0.02.

C10G C23G A41G: the self-cleavage was 0.

On to C10G G33A G44A, for which the self-cleavage worked out at 0.01.

Turning to C10G G17U G30U C31A C46U, the self-cleavage was determined as 0.12.

C10G C13G G19C C31U: the self-cleavage came to 0.02.

On to C10U A39G G44A C45A, for which the self-cleavage came out at 0.06.

In the case of C10G C13G C23G, the self-cleavage is 0.03.

For the variant C10G C13G A25U G29C C31A U34C, the self-cleavage was found to be 0.

In the case of C10G C13A G22C, the self-cleavage came out at 0.03.

Consider C10U C13G G36C A41C, for which the self-cleavage turned out to be 0.01.

Consider C10U A11U G19C A25G G35C, for which the self-cleavage was 0.

Take C10G G30U G33C: the self-cleavage came to 0.01.

As for C10G C15U C31U G44U, the self-cleavage amounted to 0.03.

Turning to C10G A14C G17U G22U C46U, the self-cleavage amounted to 0.02.

For C10G A24G G40U, the self-cleavage is 0.

Regarding C10G A24U G35U, the self-cleavage turned out to be 0.

Take C10G C15A A16G C45A C46A: the self-cleavage came out at 0.01.

For the variant C10G C15U G29C G33U C45G C46U, the self-cleavage was 0.01.

Regarding C10G A26U U43A, the self-cleavage was 0.02.

Turning to C10G G21U G36U, the self-cleavage came out at 0.01.

As to C10U A11C C45A, the self-cleavage came to 0.01.

On to C10U A12U A25C, for which the self-cleavage stood at 0.07.

Take C10U A12U A25G: the self-cleavage worked out at 0.11.

For the variant C10G G27C U38A, the self-cleavage was determined as 0.04.

As for C10G U34G G36U, the self-cleavage turned out to be 0.01.

Regarding C10U C15G G35U, the self-cleavage stood at 0.04.

As to C10G A12U A39G, the self-cleavage came out at 0.02.

Take C10G G17A U34A: the self-cleavage worked out at 0.02.

In the case of C10G G22C A25G U32A, the self-cleavage came out at 0.01.

Turning to C10U C15U C31U, the self-cleavage worked out at 0.17.

Consider C10G G21C G30C, for which the self-cleavage worked out at 0.09.

Consider C10G G44C C46U, for which the self-cleavage turned out to be 0.03.

Regarding C10G G19A A24U G27C, the self-cleavage turned out to be 0.08.

C10G G27A C37U: the self-cleavage turned out to be 0.01.

With C10U A14C G19A C31G, the self-cleavage turned out to be 0.01.

Consider C10U A24G G29U U34G, for which the self-cleavage was 1.01.

With C10G C15G G19U U38A, the self-cleavage was determined as 0.01.

Take C10U A16C A39C U43A: the self-cleavage is 0.

For C10G G17A C23U G33U, the self-cleavage worked out at 0.02.

For C10G G21A A24C G44U, the self-cleavage is 0.01.

C10U A14C G21U G40C: the self-cleavage is 0.02.

For C10G G22A C23A A25G, the self-cleavage was 0.08.

Take C10U C15A A16G G30A C31A: the self-cleavage came to 0.03.

For the variant C10G A16C A26C, the self-cleavage came to 0.02.

As for C10U A12C A25G U43A, the self-cleavage was 0.

In the case of C10G A12U C15A C23G A26U A39G, the self-cleavage came to 0.01.

On to C10G C18G C31A C46A, for which the self-cleavage stood at 0.01.

As for C10G A12U C13U C15G C23U, the self-cleavage turned out to be 0.

For the variant C10G U28G G44C, the self-cleavage was 0.13.

For the variant C10U C13A G19U A26G G35A, the self-cleavage came out at 0.01.

Regarding C10U A12U G22C A25U, the self-cleavage worked out at 0.05.

For C10U C15A G40A A41U, the self-cleavage is 0.02.

For the variant C10G A24G U43G, the self-cleavage is 0.

Regarding C10G C31U G44U, the self-cleavage turned out to be 0.01.

Regarding C10G A25G U32C G33A, the self-cleavage was 0.01.

C10U A12U C15U U34C U43G: the self-cleavage stood at 0.02.

As to C10G G29U A41U, the self-cleavage stood at 0.02.

With C10G G40A U43G, the self-cleavage turned out to be 0.01.

Turning to C10G G22U C23A, the self-cleavage is 0.29.

C10G C18G A26U G30U G36A: the self-cleavage came to 0.

With C10U A16C A24C C31G, the self-cleavage was 0.02.

Consider C10G G27C C45A, for which the self-cleavage came out at 0.

Take C10G C13A C18U G27A: the self-cleavage stood at 0.01.

In the case of C10U A12C C18A C23U G35C, the self-cleavage stood at 0.

For the variant C10U A25G G29A, the self-cleavage was found to be 0.27.

Regarding C10U A12C U28C C37A, the self-cleavage came to 0.01.

Regarding C10G C15A A26U, the self-cleavage stood at 0.

With C10U A14U G33A C37A C45U, the self-cleavage is 0.04.

On to C10G C23A G29C C31A U32C, for which the self-cleavage stood at 0.01.

With C10G A14C G36C, the self-cleavage was 0.01.

For C10U C13A C18U U32A, the self-cleavage turned out to be 0.

Consider C10G A16U A25U G35U, for which the self-cleavage was 0.03.

In the case of C10U C13A G29U U43C, the self-cleavage was found to be 0.02.

As for C10G G33C C46G, the self-cleavage is 0.01.

C10G G30A C31A: the self-cleavage came out at 0.04.

With C10U A16U C23A A41C U43A, the self-cleavage came out at 0.03.

Turning to C10G U28G A39G C42A, the self-cleavage is 0.

As for C10G G27U C46A, the self-cleavage was 0.22.

Regarding C10G A16G G19U G22C G27A, the self-cleavage worked out at 0.02.

Regarding C10G C18U A26U C46G, the self-cleavage worked out at 0.03.

With C10U C13U G30U, the self-cleavage turned out to be 0.07.

For C10U A14C G21U, the self-cleavage was 0.04.

With C10G A24G A26U G33C, the self-cleavage stood at 0.02.

Regarding C10U A25C G35C G36C C46G, the self-cleavage came to 0.

Consider C10U A26G C37A, for which the self-cleavage was determined as 0.05.

On to C10G A12U C18U, for which the self-cleavage stood at 0.01.

Regarding C10G C13G G30U A39C, the self-cleavage was 0.01.

C10U A11U U28G: the self-cleavage turned out to be 0.26.

C10U A26C G29A A39G G40C: the self-cleavage turned out to be 0.

C10U A14G G30U: the self-cleavage was found to be 0.15.

Take C10U A25U G33A: the self-cleavage was found to be 0.04.

On to C10G G21U A26G G30U, for which the self-cleavage came out at 0.12.

On to C10G C18A U38C, for which the self-cleavage was found to be 0.01.

As to C10U A12U C45G, the self-cleavage stood at 0.02.

C10G G27C C37A: the self-cleavage came to 0.03.

With C10G G19C U28G G29U, the self-cleavage came out at 0.01.

C10G C15G A26C U32G G36A C45A: the self-cleavage was 0.01.

Regarding C10G G17A C23U G30C G33A C46G, the self-cleavage was found to be 0.02.

Turning to C10G G19A G36A, the self-cleavage is 0.02.

In the case of C10G C37A U38G G44U, the self-cleavage was 0.01.

On to C10G G30A U43A C45G, for which the self-cleavage is 0.02.
